The other results are listed elsewhere or left out.

This test deals with T1, MBP-FoxP1dN (Mus musculus, UniProt P58462 326-579).
T1 sequence: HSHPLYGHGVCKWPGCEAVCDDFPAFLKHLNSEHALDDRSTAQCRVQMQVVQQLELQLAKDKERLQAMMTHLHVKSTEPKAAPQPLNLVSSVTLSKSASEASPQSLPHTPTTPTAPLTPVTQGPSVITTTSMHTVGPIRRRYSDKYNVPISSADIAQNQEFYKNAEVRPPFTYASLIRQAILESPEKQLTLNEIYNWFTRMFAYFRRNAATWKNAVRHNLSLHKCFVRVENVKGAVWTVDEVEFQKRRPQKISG
Put plainly: PD-seq (MBP pull-down with sequencing); 20 mM Tris-HCl pH 7.5, 100 mM NaCl, 1.5 mM MgCl2, 0.4 uM protein, 0.1 uM dsDNA library, 30 min, room temperature, amylose pull-down; high values mean tight binding. To be noted: protein: recombinant; tags: His6-MBP; chain copies: 2; dsDNA, one strand shown. In a few lines:
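Binding is the reads-per-million enrichment of pull-down relative to input, pooled across replicates. For this, 0.4 µM His6-MBP-tagged mouse FoxP3 or FoxP1 fragment lacking the N-terminus, made in E. coli, was incubated with 0.1 µM Klenow-filled double-stranded degenerate DNA library for 30 min at room temperature in Tris pH 7.5 buffer with NaCl and MgCl2. Complexes bound to amylose resin were washed three times before proteinase K released the DNA for PCR barcoding and Illumina sequencing.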
As to “GATGATTGTTCTCCCAGCTGATGAATTATTTGCTTCGAGTAAACAAATTTTCCTAATCTTTCTGTTCAAGCGCCATCTAC”, the binding signal is 1.56 RPM ratio (pull-down/input).
As for “GATGATTGTTCTCCCAGCTGATGAATTTGGGGTTTCGAGTAAACAAATTTTCCTAATCTTTCTGTTCAAGCGCCATCTAC”, the binding signal was 0.784 RPM ratio (pull-down/input).
For “GATGATTGTTCTCCCAGCTGATGAATTCCCTTTCTCGAGTAAACAAATTTTCCTAATCTTTCTGTTCAAGCGCCATCTAC” the value was 0.783 RPM ratio (pull-down/input); for “GATGATTGTTCTCCCAGCTGATGAATTCAAATGCTCGAGTAAACAAATTTTCCTAATCTTTCTGTTCAAGCGCCATCTAC”, 1.03 RPM ratio (pull-down/input); for “GATGATTGTTCTCCCAGCTGATGAATTTCAAGTTTCGAGTAAACAAATTTTCCTAATCTTTCTGTTCAAGCGCCATCTAC”, 0.908 RPM ratio (pull-down/input).
For “GATGATTGTTCTCCCAGCTGATGAATTGCCCTACTCGAGTAAACAAATTTTCCTAATCTTTCTGTTCAAGCGCCATCTAC” the value was 0.904 RPM ratio (pull-down/input); for “GATGATTGTTCTCCCAGCTGATGAATTCGATACGTCGAGTAAACAAATTTTCCTAATCTTTCTGTTCAAGCGCCATCTAC”, 0.918 RPM ratio (pull-down/input).
With “GATGATTGTTCTCCCAGCTGATGAATTCAATACCTCGAGTAAACAAATTTTCCTAATCTTTCTGTTCAAGCGCCATCTAC” the figure was 0.912 RPM ratio (pull-down/input); with “GATGATTGTTCTCCCAGCTGATGAATTTGTGCGTTCGAGTAAACAAATTTTCCTAATCTTTCTGTTCAAGCGCCATCTAC”, 1.2 RPM ratio (pull-down/input); with “GATGATTGTTCTCCCAGCTGATGAATTACTGGCGTCGAGTAAACAAATTTTCCTAATCTTTCTGTTCAAGCGCCATCTAC”, 0.996 RPM ratio (pull-down/input).
Turning to “GATGATTGTTCTCCCAGCTGATGAATTGGTGGGATCGAGTAAACAAATTTTCCTAATCTTTCTGTTCAAGCGCCATCTAC”, the binding signal was 0.82 RPM ratio (pull-down/input).
“GATGATTGTTCTCCCAGCTGATGAATTGCACCACTCGAGTAAACAAATTTTCCTAATCTTTCTGTTCAAGCGCCATCTAC”: the binding signal is 1.1 RPM ratio (pull-down/input).
With “GATGATTGTTCTCCCAGCTGATGAATTGTTCCCTTCGAGTAAACAAATTTTCCTAATCTTTCTGTTCAAGCGCCATCTAC” the figure was 1.12 RPM ratio (pull-down/input); with “GATGATTGTTCTCCCAGCTGATGAATTACTTTTGTCGAGTAAACAAATTTTCCTAATCTTTCTGTTCAAGCGCCATCTAC”, 1.17 RPM ratio (pull-down/input).
With “GATGATTGTTCTCCCAGCTGATGAATTTGGTCACTCGAGTAAACAAATTTTCCTAATCTTTCTGTTCAAGCGCCATCTAC” the figure was 0.948 RPM ratio (pull-down/input).
As for “GATGATTGTTCTCCCAGCTGATGAATTAATCAAATCGAGTAAACAAATTTTCCTAATCTTTCTGTTCAAGCGCCATCTAC”, the binding signal was 1.04 RPM ratio (pull-down/input).
Take “GATGATTGTTCTCCCAGCTGATGAATTGCCGTTTTCGAGTAAACAAATTTTCCTAATCTTTCTGTTCAAGCGCCATCTAC”: the binding signal is 1.05 RPM ratio (pull-down/input).
Turning to “GATGATTGTTCTCCCAGCTGATGAATTAGAGTGTTCGAGTAAACAAATTTTCCTAATCTTTCTGTTCAAGCGCCATCTAC”, the binding signal was 1.03 RPM ratio (pull-down/input).
For “GATGATTGTTCTCCCAGCTGATGAATTTACAGGGTCGAGTAAACAAATTTTCCTAATCTTTCTGTTCAAGCGCCATCTAC”, the binding signal was 1.02 RPM ratio (pull-down/input).
Take “GATGATTGTTCTCCCAGCTGATGAATTTGTTCACTCGAGTAAACAAATTTTCCTAATCTTTCTGTTCAAGCGCCATCTAC”: the binding signal was 1.17 RPM ratio (pull-down/input).
“GATGATTGTTCTCCCAGCTGATGAATTGATCAACTCGAGTAAACAAATTTTCCTAATCTTTCTGTTCAAGCGCCATCTAC”: the binding signal was 1.08 RPM ratio (pull-down/input).
With “GATGATTGTTCTCCCAGCTGATGAATTTTTGGAGTCGAGTAAACAAATTTTCCTAATCTTTCTGTTCAAGCGCCATCTAC” the figure was 0.838 RPM ratio (pull-down/input).
As for “GATGATTGTTCTCCCAGCTGATGAATTACGATGATCGAGTAAACAAATTTTCCTAATCTTTCTGTTCAAGCGCCATCTAC”, the binding signal was 1.1 RPM ratio (pull-down/input).
Regarding “GATGATTGTTCTCCCAGCTGATGAATTAAACTTGTCGAGTAAACAAATTTTCCTAATCTTTCTGTTCAAGCGCCATCTAC”, the binding signal is 0.918 RPM ratio (pull-down/input).
With “GATGATTGTTCTCCCAGCTGATGAATTGCATAGTTCGAGTAAACAAATTTTCCTAATCTTTCTGTTCAAGCGCCATCTAC” the figure was 1.24 RPM ratio (pull-down/input); with “GATGATTGTTCTCCCAGCTGATGAATTCAAGCAGTCGAGTAAACAAATTTTCCTAATCTTTCTGTTCAAGCGCCATCTAC”, 0.947 RPM ratio (pull-down/input).
With “GATGATTGTTCTCCCAGCTGATGAATTCCCACATTCGAGTAAACAAATTTTCCTAATCTTTCTGTTCAAGCGCCATCTAC” the figure was 0.955 RPM ratio (pull-down/input).
With “GATGATTGTTCTCCCAGCTGATGAATTGCATCGATCGAGTAAACAAATTTTCCTAATCTTTCTGTTCAAGCGCCATCTAC” the figure was 1.2 RPM ratio (pull-down/input); with “GATGATTGTTCTCCCAGCTGATGAATTTCTCTCATCGAGTAAACAAATTTTCCTAATCTTTCTGTTCAAGCGCCATCTAC”, 0.883 RPM ratio (pull-down/input).
With “GATGATTGTTCTCCCAGCTGATGAATTAGTGAGGTCGAGTAAACAAATTTTCCTAATCTTTCTGTTCAAGCGCCATCTAC”, the binding signal is 0.86 RPM ratio (pull-down/input).
On to “GATGATTGTTCTCCCAGCTGATGAATTCCCAAACTCGAGTAAACAAATTTTCCTAATCTTTCTGTTCAAGCGCCATCTAC”, for which the binding signal is 0.789 RPM ratio (pull-down/input).

(Values after article PMC12820563, “FoxP3 forms a head-to-head dimer in vivo and stabilizes its multimerization on adjacent microsatellites”.)
